# The whole screen tested about 43,000 compounds, of which about 200 (0.47%) were called active. Not shown: some 12% with an inconclusive outcome. Calls follow the shape of the dose curve; as a rule, active = well fitted cell-killing curve with a large enough effect; inconclusive = small, poorly fitted or top-dose-only effect, or effect the other way; inactive = flat fitted curve, though single readings scatter. The list shows a part of the results.
# Assay: Cell viability qHTS assay in S16 Pmp22-F2sN cells; also: nearly all actives have a fitted effect of over 65% in size
# Settings: S16 Pmp22-F2sN Schwann cells (luciferase reporters placed in the Pmp22 gene) viability, CellTiter-Glo, 24 h; series mostly up to 57.5 µM; activity change, negative = cytotoxicity: at the top concentration
# Method in brief: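 S16 Schwann cells carrying the Pmp22-F2sN reporter, seeded in 1536-well format, were exposed to library compounds for 24 h at 37C. Viability was read as CellTiter-Glo luminescence after 15 min at room temperature.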
# % is scaled to controls: 0 for no effect and ±100 for the full control effect.
row,SMILES,"activity change, negative = cytotoxicity"
1,CC(C)NC(=O)c1ccc2c(c1)N(Cc1cccc(Cl)c1)C(=O)c1ccccc1S2=O (stereo unspecified),inactive: -1.68%
2,CCc1ccccc1NS(=O)(=O)c1ccc2c(c1)CCCN2C(=O)C1CCC1,inactive: -29.5%
3,COc1ccc(NC(=O)CN2CCN(Cc3ccccc3Cl)S2(=O)=O)cc1Cl,inactive: 2%
4,COc1cc(OC)c(NC(=O)N2CCC(CN3CCOCC3)CC2)cc1Cl,inactive: 19.9%
5,CCN(C(=O)Cn1c(=O)oc2cc(S(=O)(=O)N3CCCCC3)ccc21)c1ccccc1,inactive: 9.93%
6,CCc1cccc(NC(=O)CCc2c(C)nc3c(-c4ccccc4)c(C)nn3c2C)c1,inactive: 17.1%
7,Cc1ccc(-c2nn(-c3ccccc3)c3c2cnc2ccccc23)cc1C,inactive: -4.39%
8,Cc1cc(NC(=O)Nc2nnc(N3CCCCCC3)s2)ccc1Br,inactive: -0.629%
9,CCOc1ccc(NC(=O)C(=O)NCCc2csc(-c3ccc(C(F)(F)F)cc3)n2)cc1,inactive: 6.4%
10,Cc1ccc(C(=O)N2CCn3c4c(c5cc(C)ccc53)CCCC42)cc1 (stereo unspecified),inactive: -14.3%
11,COc1ccc(CCNC(=O)c2ccc3c(c2)N(Cc2ccccc2)CCS3)cc1OC,inactive: -12.7%
12,Cc1cc(C)cc(NS(=O)(=O)c2ccc3[nH]cc(C(=O)NCCc4ccccc4)c(=O)c3c2)c1,inactive: 13%
13,CC(C)c1ccc(NS(=O)(=O)c2cc(Br)cc3c2N(C(=O)C2CC2)CC3)cc1,inactive: 17.8%
14,COc1ccc(OC)c(-c2noc(N3CCN(c4ccc(Cl)cc4)CC3)n2)c1,inactive: 27%
15,Cn1cnc(S(=O)(=O)N2CCCC(C(=O)NCc3ccc(F)cc3)C2)c1 (stereo unspecified),inactive: 15.1%
16,Cc1ccc(S(=O)(=O)N(CCc2ccccc2)CC(=O)Nc2ccccc2C)cc1,inactive: 7.05%
17,COc1ccccc1CNC(=O)c1cc2c(s1)-c1ccc(Cl)cc1SC2,inactive: -0.721%
18,COc1ccccc1N1CCN(C(CNC(=O)C(=O)NCc2cccnc2)c2cccnc2)CC1 (stereo unspecified),inactive: -5.9%
19,CCN(CC)CCCNC(=O)CCC(=O)NNc1nc2ccccc2c2nc(C)nn12,inactive: 26.3%
20,O=C(COc1ccc(Cl)cc1)Nc1nnc(S(=O)(=O)N2CCCCCC2)s1,inactive: -3.8%
21,CCOc1cccc(CC(=O)N2CCc3c([nH]c4ccc(OC)cc34)C2c2ccc(F)cc2)c1OCC (stereo unspecified),inactive: -5.02%

row,SMILES,"activity change, negative = cytotoxicity"
1,CC(=O)N1CCCc2cc(S(=O)(=O)N3CCC(C(=O)Nc4ccc(C)cc4Cl)CC3)ccc21,inactive: -1.29%
2,CCCCOc1ccc(C2C(C(=O)Nc3ccccc3OC)=C(C)Nc3nnnn32)cc1OC (stereo unspecified),inactive: -7.98%
3,Cc1ccn2c(Nc3ccc4c(c3)OCCO4)c(-c3ccccc3O)nc2c1,inactive: 0.746%
4,Cc1ccc(S(=O)(=O)n2nc(C)c(S(=O)(=O)N3CCCCCC3)c2C)cc1C,inactive: -13.8%
5,CC(C)Cc1nn2c(=O)cc(COC(=O)c3ccc(NC(=O)C4CCCCC4)cc3)nc2s1,inactive: 4.42%
6,COc1ccc(NC(=O)c2cc(S(=O)(=O)N3CCCC3)ccc2OC)cc1,inactive: 10.5%
7,CCOc1ccc(C(=O)NCC(c2cccs2)S(=O)(=O)c2ccccc2)cc1 (stereo unspecified),inactive: 3.46%
8,CCOc1ccc(NC(=O)c2cc(C)nc3c2c(C)nn3-c2ccc(C)cc2)cc1,inactive: 4.99%
9,Cc1cccc(C(=O)N2CCc3cc(CNC(=O)CSc4ccccc4)ccc32)c1,inactive: -6.11%
10,CCOc1ccc(C(=O)NCCSc2c(C)[nH]c3ccccc23)cc1OCC,inactive: 16.3%
11,CCOc1ccccc1NC(=O)c1ccc(F)c(S(=O)(=O)N2CCN(c3ccc(F)cc3)CC2)c1,inactive: 3.17%
12,COc1ccc(Cn2ccnc2SCC(=O)Nc2nnc(C)s2)cc1,inactive: -6.77%
13,Cc1nn2c(C)c(C(=O)NCc3ccc(OC(C)C)cc3)cnc2c1-c1ccc(F)cc1,inactive: -12.6%
14,COc1cccc(-n2c(SCc3ccc(F)cc3)nc3c([nH]c4ccccc43)c2=O)c1,inactive: 10.1%
15,Cc1ccc2nc(-c3ccc(Cl)s3)c(Nc3ccc4c(c3)OCCO4)n2c1,inactive: 3.56%
16,COC(=O)c1ccc(NC(=O)CN(C)S(=O)(=O)c2ccc(Br)s2)cc1,inactive: 7.11%
17,COc1ccc(NC(=O)Cn2c(=O)c3ccccc3n3nncc23)c(OC)c1,inactive: 19.7%
18,CC(=O)c1c(C)oc2c1cc(NS(=O)(=O)c1ccc(C(C)(C)C)cc1)c1ccccc12,inactive: -13.7%
19,Cc1ccc(CNC(=O)C(C)n2nc(C)c3sc4ccccc4c3c2=O)cc1 (stereo unspecified),inactive: -21.1%
20,CCN(CCCNC(=O)c1nn(-c2ccc(C)cc2)c(=O)c2c1c1ccccc1n2C)c1cccc(C)c1,inactive: 21.8%
21,Cc1cccc(NC(=O)CN2C(=O)C(c3ccc(F)cc3)=NC23CCCCCC3)c1,inactive: -7.34%

row,SMILES,"activity change, negative = cytotoxicity"
1,CCn1c(=O)cc(OCC(=O)N2CCN(c3cccc(C)c3C)CC2)c2ccccc21,inactive: 3.88%
2,COc1cccc(CNC(=O)CN2C(=O)COc3ccc(S(=O)(=O)N4CCOCC4)cc32)c1,inactive: 2.24%
3,Cc1ccc2c(c1)-c1c(c(C(=O)N3CCN(c4cc(C)ccc4C)CC3)nn1C)CS2,inactive: 7.65%
4,Cc1ccc(CNC(=O)c2ccc(N3CCCC3)c(NC(=O)Nc3ccc(F)c(Cl)c3)c2)cc1,inactive: 2.39%
5,COc1ccc(CCNC(=O)CSc2nc3nc(C)c(Cc4ccc(C)cc4)c(C)n3n2)cc1OC,inactive: 5.32%
6,CCN1CCN(C(=O)c2ccc3c(c2)N(Cc2cccc(Cl)c2)C(=O)c2ccccc2S3=O)CC1 (stereo unspecified),inactive: -11%
7,Cc1ccc(C)c(OCCn2c(C3CC(=O)N(Cc4ccc(F)cc4)C3)nc3ccccc32)c1 (stereo unspecified),inactive: -14.2%
8,CCN(CC)CCCNc1cc(-c2ccccc2)nc(C)n1,inactive: -2.77%
9,O=S(=O)(c1ccc(Cl)cc1)c1nc(-c2ccccc2Br)oc1NCc1ccccc1,inactive: -0.666%
10,CCn1c(C)c(C)c2cc(C(=O)NCCCN3CCCCC3C)ccc21 (stereo unspecified),inactive: 0.349%
11,COc1ccc(CNC(=O)CS(=O)Cc2nc(-c3ccc(OC)c(OC)c3)oc2C)cc1 (stereo unspecified),inactive: -0.741%
12,COc1ccc(Cn2c(=O)[nH]c3cc(C(=O)NCCC(C)C)ccc3c2=O)cc1,inactive: 14.8%
13,Cc1ccc(N(CC(=O)Nc2cccc(Cl)c2C)S(=O)(=O)c2c(C)noc2C)cc1,inactive: 5.09%
14,CCOc1ccc2nc(N3CCN(C(=O)c4ccc(S(=O)(=O)CC)cc4)CC3)sc2c1,inactive: -28.4%
15,Cc1ccc(/C=C/C(=O)Nc2nc(-c3cccs3)ns2)cc1,inactive: -1.13%
16,COc1ccc(-n2cc(C(=O)N(CCN(C)C)Cc3ccccc3)c3ccccc3c2=O)cc1,inactive: -8.51%
17,COC(=O)c1c(SC)nc2ccccc2c1OCc1ccc(Br)cc1,inactive: 19.1%
18,O=C(/C=C/c1ccco1)Nc1ccc(F)cc1,inactive: 7.45%
19,CCOC(=O)C1CCCN(c2nc3c(S(=O)(=O)c4ccc(Br)cc4)nnn3c3ccsc23)C1 (stereo unspecified),inactive: -0.4%

# From PubChem BioAssay AID1508642 (National Center for Advancing Translational Sciences (NCATS), 2021)
